# According to the supplement of paper PMC8728848:
# Some of the results follow.
# Experiments:
# Assay in all cases: glycan array binding signal (z-score within array); higher = stronger binding
# Conditions in all cases: glycan notation: IUPAC condensed, linker removed
# [1] = target: GalNAc(b1-4)GlcNAc(b1-2)Man
# Procedure, shortened: (§1)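 The binding signal is a Z-score computed within each array and averaged over linkers. Arrays of the same protein sequence at different concentrations or buffers were also averaged together. Data originate from 3228 arrays in the Consortium for Functional Glycomics database, kept only where the protein sequence was available.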
# [2] = target: GalNAc(b1-4)GlcNAc(b1-2)Man(a1-3)[GalNAc(b1-4)GlcNAc(b1-2)Man(a1-6)]Man(b1-4)GlcNAc(b1-4)GlcNAc
# Procedure, shortened: as §1
# [3] = target: GalNAc(b1-4)GlcNAc(b1-3)GalNAc(b1-4)GlcNAc
# Procedure, shortened: as §1
# GalNAc(b1-4)GlcNAc6S = target: GalNAc(b1-4)GlcNAc6S
# Procedure, shortened: as §1
# GalNAc(b1-6)GalNAc = target: GalNAc(b1-6)GalNAc
# Procedure, shortened: as §1
# GalNAc3S(b1-4)GlcNAc = target: GalNAc3S(b1-4)GlcNAc
# Procedure, shortened: as §1
# GalNAc3S(b1-4)GlcNAc3S = target: GalNAc3S(b1-4)GlcNAc3S
# Procedure, shortened: as §1
# [4] = target: GalNAc3S(b1-4)[Fuc(a1-3)]GlcNAc
# Procedure, shortened: as §1
# GalNAc4S6S(b1-4)GlcNAc = target: GalNAc4S6S(b1-4)GlcNAc
# Procedure, shortened: as §1
# GalNAc6S(b1-4)GlcNAc = target: GalNAc6S(b1-4)GlcNAc
# Procedure, shortened: as §1
# Glc(a1-4)Glc = target: Glc(a1-4)Glc
# Procedure, shortened: as §1
# [5] = target: Glc(a1-4)Glc(a1-4)Glc(a1-4)Glc
# Procedure, shortened: as §1
# Glc(a1-6)Glc(a1-6)Glc = target: Glc(a1-6)Glc(a1-6)Glc
# Procedure, shortened: as §1
# [6] = target: Glc(a1-6)Glc(a1-6)Glc(a1-6)Glc
# Procedure, shortened: as §1
# Glc(b1-4)Glc = target: Glc(b1-4)Glc
# Procedure, shortened: as §1
# Glc(b1-6)Glc = target: Glc(b1-6)Glc
# Procedure, shortened: as §1
# GlcA(b1-3)Gal = target: GlcA(b1-3)Gal
# Procedure, shortened: as §1
# GlcA(b1-3)GlcNAc = target: GlcA(b1-3)GlcNAc
# Procedure, shortened: as §1
# GlcA(b1-6)Gal = target: GlcA(b1-6)Gal
# Procedure, shortened: as §1
# [7] = target: GlcA3S(b1-3)Gal(b1-4)GlcNAc(b1-2)Man
# Procedure, shortened: as §1
# [8] = target: GlcA3S(b1-3)Gal(b1-4)GlcNAc(b1-3)Gal(b1-4)Glc
# Procedure, shortened: as §1
# [9] = target: GlcNAc(a1-3)Gal(b1-4)GlcNAc
# Procedure, shortened: as §1
# [10] = target: GlcNAc(a1-4)Gal(b1-3)GlcNAc
# Procedure, shortened: as §1
# [11] = target: GlcNAc(a1-4)Gal(b1-4)GalNAc
# Procedure, shortened: as §1
# [12] = target: GlcNAc(a1-4)Gal(b1-4)GlcNAc
# Procedure, shortened: as §1
# [13] = target: GlcNAc(a1-4)Gal(b1-4)GlcNAc(b1-3)Gal(b1-4)Glc
# Procedure, shortened: as §1
# [14] = target: GlcNAc(a1-4)Gal(b1-4)GlcNAc(b1-3)Gal(b1-4)GlcNAc
# Procedure, shortened: as §1
# [15] = target: GlcNAc(a1-4)Gal(b1-4)GlcNAc(b1-3)Gal(b1-4)GlcNAc(b1-3)Gal(b1-4)GlcNAc
# Procedure, shortened: as §1
# [16] = target: GlcNAc(a1-4)Gal(b1-4)GlcNAc(b1-3)Gal(b1-4)[Fuc(a1-3)]GlcNAc(b1-3)Gal(b1-4)[Fuc(a1-3)]GlcNAc
# Procedure, shortened: as §1
# [17] = target: GlcNAc(a1-6)Gal(b1-4)GlcNAc
# Procedure, shortened: as §1
# [18] = target: GlcNAc(b1-2)Gal(b1-3)GalNAc
# Procedure, shortened: as §1
# [19] = target: GlcNAc(b1-2)Man(a1-3)[GlcNAc(b1-2)Man(a1-6)]Man(b1-4)GlcNAc(b1-4)GlcNAc
# Procedure, shortened: as §1
# [20] = target: GlcNAc(b1-2)Man(a1-3)[GlcNAc(b1-2)Man(a1-6)]Man(b1-4)GlcNAc(b1-4)[Fuc(a1-6)]GlcNAc
# Procedure, shortened: as §1
# [21] = target: GlcNAc(b1-2)Man(a1-3)[GlcNAc(b1-4)][GlcNAc(b1-2)Man(a1-6)]Man(b1-4)GlcNAc(b1-4)GlcNAc
# Procedure, shortened: as §1
# [22] = target: GlcNAc(b1-2)Man(a1-3)[GlcNAc(b1-4)][GlcNAc(b1-2)Man(a1-6)]Man(b1-4)GlcNAc(b1-4)[Fuc(a1-6)]GlcNAc
# Procedure, shortened: as §1
# [23] = target: GlcNAc(b1-2)[GlcNAc(b1-4)]Man(a1-3)[GlcNAc(b1-2)Man(a1-6)]Man(b1-4)GlcNAc(b1-4)GlcNAc
# Procedure, shortened: as §1
# [24] = target: GlcNAc(b1-2)[GlcNAc(b1-4)]Man(a1-3)[GlcNAc(b1-4)][GlcNAc(b1-2)Man(a1-6)]Man(b1-4)GlcNAc(b1-4)GlcNAc
# Procedure, shortened: as §1
binder,measurement,setting,value
Clec49 (Caenorhabditis elegans) (protein) MTRLTLLLFGLLGAATAQTCNTGGIYNEQFNRCYQYFTAPAQFSFAEQQCNLLGGHLASVQNGQENALLQSNAANSFKRSNYSDYWIGATDLETSGTWKWTDPSVTFDYSNWQLGEPQSGSDCAIQDKGDGTWSAIGCTSYRPYVCVTPVIMTATCPPITTPIPTTCPTPAPCPIKQCVPSCDQGWTYFSPTDFCYRVYHGEKFNDAEASCVLLGGHLASIHSLTENTFVNNIASCGIKEGKYEHLAWIGMRKVGQDWVWTDGTPSDYFNWAPKQPDNPKKELCVQTAPDLSHDKWYENWNNLECNEVMRAYICKKASIHN,glycan array binding signal (z-score),[1],0.428
same,glycan array binding signal (z-score),[2],-0.185
same,glycan array binding signal (z-score),[3],-0.004
same,glycan array binding signal (z-score),GalNAc(b1-4)GlcNAc6S,-0.36
same,glycan array binding signal (z-score),GalNAc(b1-6)GalNAc,-0.155
same,glycan array binding signal (z-score),GalNAc3S(b1-4)GlcNAc,-0.354
same,glycan array binding signal (z-score),GalNAc3S(b1-4)GlcNAc3S,-0.314
same,glycan array binding signal (z-score),[4],0.161
same,glycan array binding signal (z-score),GalNAc4S6S(b1-4)GlcNAc,0.432
same,glycan array binding signal (z-score),GalNAc6S(b1-4)GlcNAc,-0.688
same,glycan array binding signal (z-score),Glc(a1-4)Glc,-0.802
same,glycan array binding signal (z-score),[5],-0.218
same,glycan array binding signal (z-score),Glc(a1-6)Glc(a1-6)Glc,-0.347
same,glycan array binding signal (z-score),[6],-0.524
same,glycan array binding signal (z-score),Glc(b1-4)Glc,0.089
same,glycan array binding signal (z-score),Glc(b1-6)Glc,-0.529
same,glycan array binding signal (z-score),GlcA(b1-3)Gal,0.347
same,glycan array binding signal (z-score),GlcA(b1-3)GlcNAc,-0.759
same,glycan array binding signal (z-score),GlcA(b1-6)Gal,-0.321
same,glycan array binding signal (z-score),[7],-0.678
same,glycan array binding signal (z-score),[8],-0.841
same,glycan array binding signal (z-score),[9],-0.525
same,glycan array binding signal (z-score),[10],-0.232
same,glycan array binding signal (z-score),[11],-0.484
same,glycan array binding signal (z-score),[12],-0.068
same,glycan array binding signal (z-score),[13],-0.427
same,glycan array binding signal (z-score),[14],-0.142
same,glycan array binding signal (z-score),[15],-0.209
same,glycan array binding signal (z-score),[16],-0.003
same,glycan array binding signal (z-score),[17],0.015
same,glycan array binding signal (z-score),[18],-0.168
same,glycan array binding signal (z-score),[19],-0.129
same,glycan array binding signal (z-score),[20],0.606
same,glycan array binding signal (z-score),[21],-0.576
same,glycan array binding signal (z-score),[22],0.223
same,glycan array binding signal (z-score),[23],0.155
same,glycan array binding signal (z-score),[24],-0.628
